# The whole screen tested about 52,000 compounds, of which about 1,700 (3.3%) were called active. Rule as the data show it: active = survival mostly below about 52% (no sharp cut-off); inactive = mostly above about 56%. Some of the results follow.
# System: Wild type
# Assay: S. aureus survival, RN4220 and DeltatarO strains – OD600, teichoic acid synthesis inhibitors, primary screen (AID 463173)
# Details: S. aureus RN4220 wild type/DeltatarO growth, OD600, 18 h, stronger effect = lower value, screened at 18.75 µg/mL (by protocol)
row,SMILES,survival
1,CCC(C)NC(=O)c1cnn2c(C)cc(C)nc12 (configuration not stated),inactive: 89%
2,COCCCNC(=O)CCCn1c(=O)c2ccccc2n(CC(=O)Nc2ccc(C)cc2Cl)c1=O,inactive: 85%
3,O=C(NCCc1ccc(Cl)cc1)c1nnc(Cc2ccc(Cl)cc2Cl)o1,inactive: 85%
4,CC(=O)Nc1ccc(N2CCN(Cc3ccccc3)CC2)cc1,inactive: 106%
5,CC(C)Cn1c(-c2ccccc2Cl)nc2ccccc21,active: 26%
6,N/C(=N\OC(=O)Cc1ccccc1)c1ccncc1,inactive: 110%
7,O=C(CSc1nnc(NC(=O)C2CC2)s1)Nc1ccccc1F,inactive: 108%
8,CCOc1ccc(-c2c(C)nn3c(C)c(C(=O)NCCN(C)C)cnc23)cc1OCC,inactive: 87%
9,CC(C)Cn1c(CN2CCN(c3cccc(Cl)c3)CC2)nc2c1c(=O)[nH]c(=O)n2C,inactive: 137%
10,O=C(CSc1nncn2c1cc1occc12)Nc1ccc(F)c(Cl)c1,inactive: 61%
11,COc1ccc(N(CC(=O)NCCc2ccc(C)cc2)S(=O)(=O)c2c(C)nn(C)c2C)cc1,inactive: 73%
12,O=C(NCCc1ccc(Cl)cc1)c1ccc2nc(CCc3ccccc3)oc2c1,inactive: 59%
13,COc1cc(OC)cc(-c2nnc(SCC(=O)c3ccc([N+](=O)[O-])cc3)o2)c1,inactive: 78%
14,Cc1nc(S(=O)(=O)N2CCN(c3cccc(Cl)c3)CC2)cn1C,inactive: 124%
15,Oc1ccc(Br)cc1C1CC(c2ccccc2)=NC(c2ccco2)N1 (configuration not stated),active: 1%
16,COc1cc(Nc2nn(-c3ccc(OC(F)(F)F)cc3)nc2C(C)=O)cc(OC)c1,inactive: 89%
17,CCOC(=O)c1cc(-c2ccc(OC)cc2)n(CCC(=O)Nc2cccc(C)c2C)c1C,inactive: 74%
18,CCCCc1nn2c(=O)cc(COC(=O)c3ccc4c(c3)OCO4)nc2s1,inactive: 81%
19,O=C(CCCn1c(=O)[nH]c2ccc(Br)cc2c1=O)N1CCN(c2cccc(Cl)c2)CC1,active: 6%
20,COc1cc(OC)cc(-n2c(=O)c3ccccc3n(Cc3ccccc3C#N)c2=O)c1,inactive: 141%
21,CCOC(=O)c1ccc2c(c1)N(CC#N)C(=O)C(C)(C)O2,inactive: 102%
22,COc1ccccc1C(=O)NCC(c1ccc(N(C)C)cc1)N1CCc2ccccc21 (configuration not stated),inactive: 64%
23,Nc1nc(SCc2ccccc2)ns1,inactive: 96%

row,SMILES,survival
1,Cc1ccc(NCc2nnc(SCc3cc(C)ccc3C)o2)c(C)c1,inactive: 110%
2,CCC(=O)Nc1cc(-c2cn3cccnc3n2)ccc1OC,inactive: 112%
3,CCOc1ccc(-c2cn3c(n2)sc2cc(C(=O)NCCCN4CCCCC4)ccc23)cc1,active: -1%
4,CC1=C(C(=O)Nc2ccccc2)C(C(C)C)n2nc(SCc3ccccc3C)nc2N1 (configuration not stated),inactive: 99%
5,COc1cc(NC(=O)c2ccc(-c3nc(CSc4ccccc4)c(C)o3)cc2)cc(OC)c1,inactive: 111%
6,CCc1ccc(NC(=O)Cn2nc(C(F)(F)F)c3c2CCCC3)cc1,inactive: 95%
7,COc1ccc(N(CC(C)C)S(=O)(=O)c2nnc(NC(=O)c3ccco3)s2)cc1,inactive: 59%
8,CCOC(=O)C(C)(C)Sc1nnc(COc2ccccc2)n1CC,inactive: 100%
9,O=C(Cn1ncn2cccc2c1=O)NCc1cccc(Br)c1,inactive: 88%
10,COc1ccccc1Cc1nc2ccccc2nc1SCC(=O)Nc1c(C)cccc1C,inactive: 79%
11,CCCc1nc(SCC(=O)N(CC)CC)c2ccccc2n1,inactive: 105%
12,Cc1c(Cl)cccc1NC(=O)Cn1c(=O)cc(C)c2c(C)nn(-c3cccc(F)c3)c21,inactive: 74%
13,COc1ccc(NC(=O)c2cc(-c3ccc(F)cc3)no2)cc1OC,inactive: 91%
14,CCCNC(=O)Cn1nc(-c2ccc(C)cc2)c2cnc3ccc(CC)cc3c21,active: 10%
15,Cc1cc(NC(=O)c2ccco2)cc(-c2nc3ccccc3o2)c1O,inactive: 80%
16,CN(C)CCN(Cc1ccccc1)S(=O)(=O)c1csc(C(N)=O)c1,inactive: 71%
17,Cc1ccc(S(=O)(=O)n2c(CN3CCCC(C)C3)nc3ccccc32)cc1 (configuration not stated),inactive: 108%
18,CCN(C(=O)CCS(=O)(=O)c1cc2c(cc1C)NC(=O)CO2)c1cccc(C)c1,inactive: 80%
19,CCn1c(C)c(C)c2cc(C(=O)N3CCN(c4ccccc4)CC3)ccc21,inactive: 67%
20,COc1ccc(CCNC(=O)c2ccc3c(c2)nc2n3CCCCC2)cc1OC,inactive: 84%
21,CCCn1cnc2cc(NC(=O)c3cc(OC)c(OC)c(OC)c3)ccc21,inactive: 76%
22,CCc1ccc(-c2nc(CS(=O)CC(=O)NCc3ccc(F)cc3)c(C)o2)cc1 (configuration not stated),inactive: 73%
23,COCCNC(=S)N1CCC(c2nc(-c3ccc(N(C)C)cc3)no2)CC1,inactive: 107%

row,SMILES,survival
1,Cc1ccc(Cl)cc1NC(=O)CN1C(=O)c2ccccc2Sc2ncccc21,inactive: 86%
2,Cc1ccc(CNS(=O)(=O)c2c(C)nc3sc(C)cn3c2=O)cc1,inactive: 108%
3,Cc1cccc(N2CCN(Cc3nnc(-c4cccc(Br)c4)o3)CC2)c1C,inactive: 83%
4,CCCOC(=O)c1cccc(NC(=O)CSc2nnc3cc(C)c4ccccc4n23)c1,inactive: 120%
5,CC(=O)c1ccc(NC(=O)c2nc(-c3ccccc3)n(-c3ccc(C)cc3)n2)cc1,inactive: 41%
6,Clc1ccc2nc(-c3ccc(N4CCOCC4)cc3)c(Nc3ccccc3)n2c1,inactive: 63%
7,COc1ccccc1NC(=O)Cn1c(=O)oc2cc(S(=O)(=O)NCc3ccccc3)ccc21,inactive: 102%
8,O=C(NCc1cccc(Cl)c1)C1CCCN(c2nn3cc(-c4ccc(F)cc4)nc3s2)C1 (configuration not stated),inactive: 85%
9,CCOc1ccc(CNc2cc(C)nc3nc(-c4cccc(C)c4)nn23)cc1OC,inactive: 80%
10,Cc1cccc(NC(=O)c2ccc3oc(=O)c(S(=O)(=O)c4ccc(F)cc4)cc3c2)c1C,inactive: 127%
11,CCc1ccccc1N(C)C(=O)c1nn(-c2ccc(OC)cc2)c(=O)c2c1c1ccccc1n2C,inactive: 89%
12,CCOc1ccc(S(=O)(=O)c2cc3cccc(OCC)c3oc2=O)cc1,inactive: 81%
13,CCOC(=O)c1cnc2ccc(OCC)cc2c1NCCN(C)C,inactive: 103%
14,CC1CCc2c(sc3nnn(Cc4ccccc4Cl)c(=O)c23)C1 (configuration not stated),inactive: 16%
15,CCOc1ccccc1C1C(C(=O)Nc2ccccc2)=C(C)Nc2nc(-c3ccccc3)nn21 (configuration not stated),inactive: 94%
16,CCCCn1c(SCC(=O)c2ccccc2)nc2sc3c(c2c1=O)CCCC3,inactive: 62%
17,CCOc1ccccc1Oc1ncnc2c1oc1ccccc12,inactive: 88%
18,CC1CCC(NC(=O)c2ccc3c(c2)N(Cc2ccccc2F)C(=O)c2ccccc2S3(=O)=O)CC1 (configuration not stated),inactive: 89%
19,CCOC(=O)c1cc(C)n(CC2CCC(C(=O)Nc3cccc(C(C)=O)c3)CC2)c1C (configuration not stated),inactive: 79%
20,CCOc1ccccc1CNCc1c(C(=O)O)n(Cc2ccccc2)c2cc(OC)ccc12,inactive: 84%
21,Cc1ccc(S(=O)(=O)Nc2ccc(-c3ccc(N4CCCCCC4)nn3)cc2)c(C)c1,inactive: 67%
22,COc1ccc(N2CCN(C(=O)c3cnc(N4CCOCC4)c4ccccc34)CC2)cc1,inactive: 138%
23,Cc1ccc(-c2nnc3c4ccccc4c(-c4ccccc4)nn23)cc1,inactive: 123%

row,SMILES,survival
1,CC(C)NC(=O)CSc1cn(CC(=O)N2CCCCCC2)c2ccccc12,inactive: 95%
2,CCOc1ccccc1NCc1nnc2n1CCCCC2,inactive: 76%
3,Cc1ccc(NCc2cc3cc4c(cc3n(CC(=O)Nc3ccc(C)cc3)c2=O)OCCO4)cc1,active: 0%
4,COc1ccc(C)cc1NC(=O)c1nnn(CC(=O)Nc2c(C)cccc2C)c1N,inactive: 74%
5,CC1=C(C(=O)N(C)C)C(c2ccccc2Cl)NC(=O)N1 (configuration not stated),inactive: 102%
6,Cc1ccc(C)c(S(=O)(=O)c2nnn3c2nc(NC2CCCC2)c2sccc23)c1,inactive: 58%
7,Cc1ccc(S(=O)(=O)c2cn(Cc3ccccc3)c3cc(N4CCCC4)c(F)cc3c2=O)c(C)c1,inactive: 78%
8,CSc1nnc(NC(=O)c2cc(=O)c3cc(C)c(C)cc3o2)s1,inactive: 86%
9,CCc1cccc(NC(=O)c2cc3c(=O)oc4ccc(C)cc4c3s2)c1,inactive: 129%
10,COc1ccc(CNC(=O)C(CC(C)C)NS(=O)(=O)c2ccc3c(c2)oc(=O)n3C)cc1 (configuration not stated),inactive: 79%
11,CCCNS(=O)(=O)c1ccc(OCC(=O)NCc2ccco2)cc1,inactive: 116%
12,CCCCN(CC)C(=O)c1ccc2c(c1)NC(=O)c1ccccc1S2,inactive: 99%
13,Cc1cccc(C)c1NC(=O)C(=O)NCC(c1ccc2c(c1)OCO2)N1CCN(C)CC1 (configuration not stated),inactive: 78%
14,CC(C)(C)n1nnnc1C(c1cccc(C(F)(F)F)c1)N1CCC(O)CC1 (configuration not stated),inactive: 127%
15,COc1cc(S(=O)(=O)Nc2ccccc2NC(=O)CN2CCOCC2)c(OC)cc1NC(C)=O,inactive: 111%
16,CCOc1c(CNCCSc2nnnn2C)cccc1OC,inactive: 69%
17,COC(=O)c1cc(-c2ccc(C)cc2)no1,inactive: 102%
18,N#Cc1ccc(OCc2nnc(SCC(=O)c3ccccc3)n2-c2ccccc2)cc1,inactive: 108%
19,Cc1ccc(Cn2c(=O)n(Cc3ccc(C(=O)NC4CCN(Cc5ccccc5)CC4)cc3)c(=O)c3ccccc32)cc1,inactive: 81%
20,CCc1cccc(NC(=O)C2CCCN2S(=O)(=O)c2ccc3nc(-c4ccccc4)[nH]c3c2)c1 (configuration not stated),inactive: 49%
21,CCN(CC)CCN1C(=O)c2ccccc2NC1c1ccccc1F (configuration not stated),inactive: 110%
22,CC(=O)c1ccc(NC(=O)CCn2cccn2)cc1,inactive: 63%
23,Cc1ccc(-n2c(C)cc(C=C3C(=O)NC(=O)NC3=O)c2C)cc1,inactive: 105%

# Source: PubChem BioAssay AID463173 (ICCB-Longwood Screening Facility, Harvard Medical School, 2010)
